Measurements: the supplement of paper PMC6531468
This is one part of the list. These are enrichments in a pooled selection; single values are uncertain. Scores sum up all selected molecules that hold the word; the word was not tested alone.

Key:
Test in all cases: 6-mer SELEX enrichment z-score vs GST control; IMP3 is the RNA-binding protein IGF2BP3; higher = more enriched by binding
[1] = tested on: IMP3 KH1-4; conditions: construct: KH1-4 (164-579); SELEX round: R4
Procedure: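 SELEX-seq with GST-tagged IMP3 KH1-4 (Pro164-Lys579) and an N40 RNA pool, round 4. 6-mer z-score of sequence-tag enrichment normalised to the corresponding GST SELEX round; RNA k-mers written as DNA (T for U).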

[2] = tested on: IMP3 RRM1-2; conditions: construct: RRM1-2 (1-163); SELEX round: R2
Procedure: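 SELEX-seq with GST-tagged IMP3 RRM1-2 (Met1-Asn163) and an N40 RNA pool, round 2. 6-mer enrichment z-score normalised to GST SELEX. RNA written as DNA (T = U).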

[3] = molecular target: IMP3 full-length (UniProt O00425); conditions: construct: FL IMP3 (1-579); SELEX round: R4
Procedure: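 SELEX-seq with GST-tagged full-length IMP3 and an N40 RNA pool, round 4. Each 6-mer is scored as an enrichment z-score of sequence tags containing it, normalised to the matching GST SELEX round. RNA written as DNA (T = U).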

[4] = tested on: IMP3 KH1-2; conditions: construct: KH1-2 (164-376); SELEX round: R4
Procedure: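 SELEX-seq with GST-tagged IMP3 KH1-2 (Pro164-Phe376) and an N40 RNA pool, round 4 (stringent 300/600 mM KCl washes). 6-mer z-score of sequence-tag enrichment normalised to the corresponding GST SELEX round; RNA k-mers written as DNA (T for U).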

[5] = tested on: IMP3 KH3-4; conditions: construct: KH3-4 (377-579); SELEX round: R4
Procedure: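 SELEX-seq with GST-tagged IMP3 KH3-4 (Pro377-Lys579) and an N40 RNA pool, round 4. 6-mer z-score of sequence-tag enrichment normalised to the corresponding GST SELEX round; RNA k-mers written as DNA (T for U).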

Chain of UniProt O00425 (O00425 whole entry): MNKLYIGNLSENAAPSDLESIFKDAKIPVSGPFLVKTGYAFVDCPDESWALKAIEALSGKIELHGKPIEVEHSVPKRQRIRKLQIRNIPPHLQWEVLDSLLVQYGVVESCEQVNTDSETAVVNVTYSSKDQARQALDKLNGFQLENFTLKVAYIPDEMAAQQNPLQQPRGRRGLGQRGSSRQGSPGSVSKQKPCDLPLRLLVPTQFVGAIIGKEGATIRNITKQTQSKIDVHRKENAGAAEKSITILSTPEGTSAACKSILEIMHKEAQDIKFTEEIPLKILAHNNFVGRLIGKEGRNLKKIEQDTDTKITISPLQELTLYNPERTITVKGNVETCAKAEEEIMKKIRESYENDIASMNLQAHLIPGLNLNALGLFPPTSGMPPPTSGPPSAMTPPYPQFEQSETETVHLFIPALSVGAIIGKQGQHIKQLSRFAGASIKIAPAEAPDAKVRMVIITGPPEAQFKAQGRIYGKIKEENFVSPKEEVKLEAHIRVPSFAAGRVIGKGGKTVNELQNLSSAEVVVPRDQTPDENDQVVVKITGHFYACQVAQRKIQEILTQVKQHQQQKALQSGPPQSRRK
Chain of IMP3 KH1-4 (chain, as listed by the source): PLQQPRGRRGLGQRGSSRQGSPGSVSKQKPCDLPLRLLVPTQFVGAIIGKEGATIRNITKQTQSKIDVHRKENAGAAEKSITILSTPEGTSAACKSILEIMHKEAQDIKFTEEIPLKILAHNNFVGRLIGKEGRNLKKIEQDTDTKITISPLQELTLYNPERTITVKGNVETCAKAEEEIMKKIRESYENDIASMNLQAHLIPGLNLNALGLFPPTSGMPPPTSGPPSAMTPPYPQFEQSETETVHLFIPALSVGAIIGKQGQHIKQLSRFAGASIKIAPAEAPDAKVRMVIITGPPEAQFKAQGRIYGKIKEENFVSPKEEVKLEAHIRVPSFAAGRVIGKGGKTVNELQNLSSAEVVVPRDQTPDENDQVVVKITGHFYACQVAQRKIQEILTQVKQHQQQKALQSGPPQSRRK
Chain of IMP3 KH1-2 (chain, as listed by the source): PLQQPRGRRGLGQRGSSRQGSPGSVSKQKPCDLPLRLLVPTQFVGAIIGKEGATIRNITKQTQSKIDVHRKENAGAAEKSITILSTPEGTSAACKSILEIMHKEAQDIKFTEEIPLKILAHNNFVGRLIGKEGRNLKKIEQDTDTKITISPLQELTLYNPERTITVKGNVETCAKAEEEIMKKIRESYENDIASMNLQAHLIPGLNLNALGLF
Chain of IMP3 KH3-4 (chain, as listed by the source): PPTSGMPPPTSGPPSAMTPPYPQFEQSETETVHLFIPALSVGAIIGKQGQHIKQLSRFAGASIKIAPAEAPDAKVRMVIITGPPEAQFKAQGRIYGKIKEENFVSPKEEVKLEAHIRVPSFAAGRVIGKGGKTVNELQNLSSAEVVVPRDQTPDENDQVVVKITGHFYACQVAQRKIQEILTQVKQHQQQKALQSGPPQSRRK
Chain of IMP3 RRM1-2 (chain, as listed by the source): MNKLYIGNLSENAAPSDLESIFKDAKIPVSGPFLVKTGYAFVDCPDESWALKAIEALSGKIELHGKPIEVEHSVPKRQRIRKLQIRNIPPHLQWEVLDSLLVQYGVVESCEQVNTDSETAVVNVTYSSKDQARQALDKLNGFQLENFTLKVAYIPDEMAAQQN

Sequence	6-mer SELEX enrichment z-score [1]	6-mer SELEX enrichment z-score [2]	6-mer SELEX enrichment z-score [3]	6-mer SELEX enrichment z-score [4]	6-mer SELEX enrichment z-score [5]
GAGGGT	-0.011	0.064	0.118	0.187	0.195
CTAGTC	0.036	0.255	-0.005	-0.093	-0.14
ACTGGG	-0.121	0.022	0.182	0.02	-0.021
GTAATT	0.183	-0.024	-0.112	0.164	0.598
CAAGGA	-0.025	-0.578	-0.163	-0.173	-0.038
AAGAGC	-3.33	-0.97	-1.94	-3.07	-2.86
CCCCGG	-0.776	-0.811	-0.027	-0.357	-1.1
AGAGCT	-1.3	-0.021	-0.571	-1.13	-1.06
GAATCT	-0.125	-0.304	-0.276	-0.229	-0.143
ATTGCC	0.066	-0.233	-0.278	0.02	-0.194
AGGGGG	1.55	0.026	0.51	2.34	1.67
GCATTA	0.485	0.577	0.568	0.307	0.454
GGCAGC	0.792	0.599	1.86	0.68	0.408
GGTAGC	-0.414	0.246	0.077	-0.323	-0.242
GCATAC	0.726	0.579	1.2	0.455	0.293
AATGGA	0.818	-1.07	-0.515	0.321	0.968
TAGTAC	-0.281	0.118	-0.116	-0.369	-0.227
GAGGTC	0.334	-0.016	0.586	0.334	0.362
TCCTTG	-0.148	0.183	-0.222	-0.148	-0.253
AGCGAA	-2.2	-1.01	-1.21	-2.1	-1.96
ACCTCC	-0.703	-0.639	-1.03	-0.573	-1.43
GTAAGC	-0.357	-0.11	-0.217	-0.331	-0.219
CCGGTG	-0.606	-0.344	-0.096	-0.482	-0.528
TTCTGG	0.01	0.413	0.098	0.11	0.164
GGCGGA	-0.404	-0.115	0.413	-0.185	-0.146

Sequence	6-mer SELEX enrichment z-score [1]	6-mer SELEX enrichment z-score [2]	6-mer SELEX enrichment z-score [3]	6-mer SELEX enrichment z-score [4]	6-mer SELEX enrichment z-score [5]
TAGGCC	0.263	0.15	0.256	0.2	0.219
GCCGGA	-0.043	-0.791	0.272	-0.012	-0.064
TTACGA	-0.008	-0.424	-0.515	-0.05	0.107
ACAAAG	-0.091	-0.399	-0.239	-0.292	0.073
ATTTTC	1.25	0.481	0.676	1.38	1.37
TGTTCC	0.479	0.023	-0.057	0.345	0.12
AAATCT	-0.215	-0.524	-0.639	-0.232	-0.228
GCTGTG	0.098	0.096	-0.047	0.062	0.047
CTTCAT	1.1	1.12	1.19	1.3	0.754
CTTGTC	-0.099	0.333	0.119	-0.153	-0.157
TCAACG	-0.917	0.13	0.093	-1.04	-1.04
CCGTTT	-0.251	0.025	-0.174	-0.084	-0.246
ATCGGT	0.208	0.356	0.321	0.039	0.169
TAGTCT	-0.069	0.385	0.109	-0.025	0.072
GGTTAG	0.226	0.331	0.192	0.232	0.387
ACCAGC	-0.863	0.162	-0.284	-0.88	-1.41
CAGCGT	-3.03	0.158	-1.28	-2.75	-2.64
GCGATC	-0.664	0.223	0.386	-0.617	-0.661
TAGTGT	-0.24	0.267	-0.237	-0.225	-0.048
GATTGG	0.124	0.118	-0.042	0.093	0.207
ATTCCT	1.03	0.092	0.087	0.955	0.609
ACGGTC	0.226	-0.052	0.408	-0.098	-0.205
TGGAAA	0.08	-1.09	-0.827	-0.174	0.253
CTCGTT	-0.393	0.409	-0.071	-0.287	-0.19
CTTCAA	0.11	0.682	0.224	0.241	-0.096
